The source of these data is paper PMC12820563, “FoxP3 forms a head-to-head dimer in vivo and stabilizes its multimerization on adjacent microsatellites”.

Some of the results follow.

This experiment concerns the target T1, MBP-FoxP1dN (Mus musculus, UniProt P58462 326-579).
T1 sequence: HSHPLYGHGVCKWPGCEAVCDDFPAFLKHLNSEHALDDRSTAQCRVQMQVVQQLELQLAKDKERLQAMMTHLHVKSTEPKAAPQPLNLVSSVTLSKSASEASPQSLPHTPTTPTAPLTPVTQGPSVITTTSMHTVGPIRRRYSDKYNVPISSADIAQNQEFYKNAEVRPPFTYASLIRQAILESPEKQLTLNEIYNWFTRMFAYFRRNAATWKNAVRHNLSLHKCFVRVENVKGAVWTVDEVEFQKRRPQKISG
In words: PD-seq (MBP pull-down with sequencing); 20 mM Tris-HCl pH 7.5, 100 mM NaCl, 1.5 mM MgCl2, 0.4 uM protein, 0.1 uM dsDNA library, 30 min, room temperature, amylose pull-down; high values mean tight binding. The following applies: protein: recombinant; tags: His6-MBP; chain copies: 2; dsDNA, one strand shown. In outline:
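The N-terminus-lacking fragment of mouse FoxP3 or FoxP1 carried a His6-MBP tag and was expressed in E. coli. At 0.4 µM it was incubated with 0.1 µM Klenow-filled degenerate double-stranded DNA library for 30 min at room temperature in Tris pH 7.5 buffer with NaCl and MgCl2, and complexes were caught on amylose resin, washed three times, released with proteinase K, PCR-barcoded and Illumina-sequenced. Binding is reads-per-million enrichment of pull-down over input with replicates pooled.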
Take “GATGATTGTTCTCCCAGCTGATGAATTGAACTCGTCGAGTAAACAAATTTTCCTAATCTTTCTGTTCAAGCGCCATCTAC”: the binding signal is 0.827 RPM ratio (pull-down/input).
Regarding “GATGATTGTTCTCCCAGCTGATGAATTAGGCCCGTCGAGTAAACAAATTTTCCTAATCTTTCTGTTCAAGCGCCATCTAC”, the binding signal was 0.854 RPM ratio (pull-down/input).
To “GATGATTGTTCTCCCAGCTGATGAATTGGGAGGATCGAGTAAACAAATTTTCCTAATCTTTCTGTTCAAGCGCCATCTAC” belongs 0.804 RPM ratio (pull-down/input); to “GATGATTGTTCTCCCAGCTGATGAATTTAACTTCTCGAGTAAACAAATTTTCCTAATCTTTCTGTTCAAGCGCCATCTAC”, 0.878 RPM ratio (pull-down/input); to “GATGATTGTTCTCCCAGCTGATGAATTCACTTAATCGAGTAAACAAATTTTCCTAATCTTTCTGTTCAAGCGCCATCTAC”, 0.901 RPM ratio (pull-down/input).
“GATGATTGTTCTCCCAGCTGATGAATTGGGATCTTCGAGTAAACAAATTTTCCTAATCTTTCTGTTCAAGCGCCATCTAC”: the binding signal is 0.82 RPM ratio (pull-down/input).
Regarding “GATGATTGTTCTCCCAGCTGATGAATTCACCGGATCGAGTAAACAAATTTTCCTAATCTTTCTGTTCAAGCGCCATCTAC”, the binding signal was 0.794 RPM ratio (pull-down/input).
Turning to “GATGATTGTTCTCCCAGCTGATGAATTTTACCCTTCGAGTAAACAAATTTTCCTAATCTTTCTGTTCAAGCGCCATCTAC”, the binding signal is 0.813 RPM ratio (pull-down/input).
“GATGATTGTTCTCCCAGCTGATGAATTCAAATCATCGAGTAAACAAATTTTCCTAATCTTTCTGTTCAAGCGCCATCTAC”: the binding signal is 0.995 RPM ratio (pull-down/input).
For the sequence “GATGATTGTTCTCCCAGCTGATGAATTTCGTTCCTCGAGTAAACAAATTTTCCTAATCTTTCTGTTCAAGCGCCATCTAC”, the binding signal is 0.858 RPM ratio (pull-down/input).
To “GATGATTGTTCTCCCAGCTGATGAATTCATACCCTCGAGTAAACAAATTTTCCTAATCTTTCTGTTCAAGCGCCATCTAC” belongs 0.79 RPM ratio (pull-down/input); to “GATGATTGTTCTCCCAGCTGATGAATTGGAAACGTCGAGTAAACAAATTTTCCTAATCTTTCTGTTCAAGCGCCATCTAC”, 0.803 RPM ratio (pull-down/input); to “GATGATTGTTCTCCCAGCTGATGAATTTGGTCAATCGAGTAAACAAATTTTCCTAATCTTTCTGTTCAAGCGCCATCTAC”, 0.985 RPM ratio (pull-down/input).
For “GATGATTGTTCTCCCAGCTGATGAATTTACAGCGTCGAGTAAACAAATTTTCCTAATCTTTCTGTTCAAGCGCCATCTAC”, the binding signal was 1.13 RPM ratio (pull-down/input).
As to “GATGATTGTTCTCCCAGCTGATGAATTTGCAAGATCGAGTAAACAAATTTTCCTAATCTTTCTGTTCAAGCGCCATCTAC”, the binding signal was 0.998 RPM ratio (pull-down/input).
On to “GATGATTGTTCTCCCAGCTGATGAATTAATATCGTCGAGTAAACAAATTTTCCTAATCTTTCTGTTCAAGCGCCATCTAC”, for which the binding signal is 1.04 RPM ratio (pull-down/input).
As for “GATGATTGTTCTCCCAGCTGATGAATTACTACGATCGAGTAAACAAATTTTCCTAATCTTTCTGTTCAAGCGCCATCTAC”, the figure is 1.03 RPM ratio (pull-down/input); as for “GATGATTGTTCTCCCAGCTGATGAATTCTACCCGTCGAGTAAACAAATTTTCCTAATCTTTCTGTTCAAGCGCCATCTAC”, 0.825 RPM ratio (pull-down/input); as for “GATGATTGTTCTCCCAGCTGATGAATTAGCAGGCTCGAGTAAACAAATTTTCCTAATCTTTCTGTTCAAGCGCCATCTAC”, 0.82 RPM ratio (pull-down/input).
For the sequence “GATGATTGTTCTCCCAGCTGATGAATTAACGTGGTCGAGTAAACAAATTTTCCTAATCTTTCTGTTCAAGCGCCATCTAC”, the binding signal was 0.835 RPM ratio (pull-down/input).
“GATGATTGTTCTCCCAGCTGATGAATTCCCCTCCTCGAGTAAACAAATTTTCCTAATCTTTCTGTTCAAGCGCCATCTAC”: the binding signal was 0.793 RPM ratio (pull-down/input).
Consider “GATGATTGTTCTCCCAGCTGATGAATTACAAGGGTCGAGTAAACAAATTTTCCTAATCTTTCTGTTCAAGCGCCATCTAC”, for which the binding signal is 1.01 RPM ratio (pull-down/input).
For the sequence “GATGATTGTTCTCCCAGCTGATGAATTTTCGTGTTCGAGTAAACAAATTTTCCTAATCTTTCTGTTCAAGCGCCATCTAC”, the binding signal was 1.01 RPM ratio (pull-down/input).
Regarding “GATGATTGTTCTCCCAGCTGATGAATTCGTCGTTTCGAGTAAACAAATTTTCCTAATCTTTCTGTTCAAGCGCCATCTAC”, the binding signal is 0.861 RPM ratio (pull-down/input).
To “GATGATTGTTCTCCCAGCTGATGAATTCCAGATATCGAGTAAACAAATTTTCCTAATCTTTCTGTTCAAGCGCCATCTAC” belongs 0.864 RPM ratio (pull-down/input); to “GATGATTGTTCTCCCAGCTGATGAATTACGTGGTTCGAGTAAACAAATTTTCCTAATCTTTCTGTTCAAGCGCCATCTAC”, 0.982 RPM ratio (pull-down/input); to “GATGATTGTTCTCCCAGCTGATGAATTGTCTACATCGAGTAAACAAATTTTCCTAATCTTTCTGTTCAAGCGCCATCTAC”, 1.33 RPM ratio (pull-down/input).
For “GATGATTGTTCTCCCAGCTGATGAATTTTCGAGCTCGAGTAAACAAATTTTCCTAATCTTTCTGTTCAAGCGCCATCTAC”, the binding signal is 0.794 RPM ratio (pull-down/input).
Regarding “GATGATTGTTCTCCCAGCTGATGAATTGGATGCCTCGAGTAAACAAATTTTCCTAATCTTTCTGTTCAAGCGCCATCTAC”, the binding signal is 1.03 RPM ratio (pull-down/input).
For the sequence “GATGATTGTTCTCCCAGCTGATGAATTAGTCCTCTCGAGTAAACAAATTTTCCTAATCTTTCTGTTCAAGCGCCATCTAC”, the binding signal is 0.936 RPM ratio (pull-down/input).
To “GATGATTGTTCTCCCAGCTGATGAATTTTTCCGATCGAGTAAACAAATTTTCCTAATCTTTCTGTTCAAGCGCCATCTAC” belongs 0.946 RPM ratio (pull-down/input).
Consider “GATGATTGTTCTCCCAGCTGATGAATTGACACATTCGAGTAAACAAATTTTCCTAATCTTTCTGTTCAAGCGCCATCTAC”, for which the binding signal is 1.45 RPM ratio (pull-down/input).
